Experiments:
neuronal cell culture = test system: neuronal cell culture; parameters: method as in PMID 33033186; settings: cited from earlier work
NMDARs = test system: NMDARs; parameters: method as in PMID 33033186; settings: electrophysiology; cited from earlier work
[1] = test system: mouse models of stroke and retinal degeneration; parameters: method as in PMID 33033186; settings: cited from earlier work
[2] = molecular target: T1, human GluN1/GluN2A NMDARs (Homo sapiens, UniProt Q05586+Q12879); assay: Automated patch clamp, NMDARs in HEK293 cells; format: cell-based; settings: +40 mV; glycine 100 μM plus NMDA 90 μM; stable HEK293
T1 construct: host or cells: HEK293
Procedure: (§1) Recombinant human GluN1 (UniProt ID Q05586) with GluN2A (Uniprot Q12879) or GluN2B (Uniprot Q13224) NMDARs were stably expressed under tetracycline control in HEK293 cell lines (Charles River). Voltage-clamp recordings were performed using the Sophion Qube platform which performs 384 parallel and independent patch-clamp recordings with digitally controlled microfluidics (Tecan D300) on a disposable single-hole or multi-hole QChip. The following extracellular solution was used: 145 mM NaCl, 4 mM KCl, 10 mM HEPES, 10 mM glucose, 2 mM CaCl2, 1 mM MgCl2; pH 7.4. The following intracellular solution was used: 70 mM CsF, 70 mM CsCl, 10 mM HEPES, 1 mM EGTA; 316 mOsm, pH 7.2. For analysis of channel activation kinetics, cells were held at −70 mV and stepped to −20 mV before the application of glycine (100 μM) plus NMDA (90 μM for GluN1/GluN2A and 40 μM for GluN1/GluN2B). […] Quality control thresholds were set according to the seal resistance (minimum […]), and failed experiments were excluded from the analysis. For analysis of steady state agonist IC50 values, voltage steps to +40 mV were performed in the presence and absence of agonists before and after compound application in the same cell. IC50 data were generated from agonist responses as described before.[20]
(§2) Figure S1. Analysis of IC50 values of FP802 for NMDARs in HEK293 cells. […] The effects of FP802 on NMDARs were evaluated at +40 […]

[3] = molecular target: T2, human GluN1/GluN2B NMDARs (Homo sapiens, UniProt Q05586+Q13224); assay: Automated patch clamp, NMDARs in HEK293 cells; format: cell-based; settings: +40 mV; glycine 100 μM plus NMDA 40 μM; stable HEK293
T2 construct: host or cells: HEK293
Procedure: as §1, §2

[4] = molecular target: T1, human GluN1/GluN2A NMDARs; settings: GluN1/GluN2A cell line, saturating glycine 100 μM; determined previously for each cell line; cited from earlier work
[5] = molecular target: T2, human GluN1/GluN2B NMDARs; settings: GluN1/GluN2B cell line, saturating glycine 100 μM; determined previously for each cell line; cited from earlier work
[6] = test system: primary mouse cortical neurons; assay: Glutamate neurotoxicity assay in primary cortical neurons; format: cell-based
Procedure: On DIV10, vehicle (DMSO) or FP802 were added to the primary cortical cultures 30 min prior to glutamate insult. Images were acquired following the glutamate application for 24 h with 2 h intervals, where 9 images were obtained via a 20x objective for each condition at each time point with IncuCyte S3 Live-Cell Analysis System (Sartorius AG, Germany).

T1 sequence (Q12879 23-1464, other chains not shown): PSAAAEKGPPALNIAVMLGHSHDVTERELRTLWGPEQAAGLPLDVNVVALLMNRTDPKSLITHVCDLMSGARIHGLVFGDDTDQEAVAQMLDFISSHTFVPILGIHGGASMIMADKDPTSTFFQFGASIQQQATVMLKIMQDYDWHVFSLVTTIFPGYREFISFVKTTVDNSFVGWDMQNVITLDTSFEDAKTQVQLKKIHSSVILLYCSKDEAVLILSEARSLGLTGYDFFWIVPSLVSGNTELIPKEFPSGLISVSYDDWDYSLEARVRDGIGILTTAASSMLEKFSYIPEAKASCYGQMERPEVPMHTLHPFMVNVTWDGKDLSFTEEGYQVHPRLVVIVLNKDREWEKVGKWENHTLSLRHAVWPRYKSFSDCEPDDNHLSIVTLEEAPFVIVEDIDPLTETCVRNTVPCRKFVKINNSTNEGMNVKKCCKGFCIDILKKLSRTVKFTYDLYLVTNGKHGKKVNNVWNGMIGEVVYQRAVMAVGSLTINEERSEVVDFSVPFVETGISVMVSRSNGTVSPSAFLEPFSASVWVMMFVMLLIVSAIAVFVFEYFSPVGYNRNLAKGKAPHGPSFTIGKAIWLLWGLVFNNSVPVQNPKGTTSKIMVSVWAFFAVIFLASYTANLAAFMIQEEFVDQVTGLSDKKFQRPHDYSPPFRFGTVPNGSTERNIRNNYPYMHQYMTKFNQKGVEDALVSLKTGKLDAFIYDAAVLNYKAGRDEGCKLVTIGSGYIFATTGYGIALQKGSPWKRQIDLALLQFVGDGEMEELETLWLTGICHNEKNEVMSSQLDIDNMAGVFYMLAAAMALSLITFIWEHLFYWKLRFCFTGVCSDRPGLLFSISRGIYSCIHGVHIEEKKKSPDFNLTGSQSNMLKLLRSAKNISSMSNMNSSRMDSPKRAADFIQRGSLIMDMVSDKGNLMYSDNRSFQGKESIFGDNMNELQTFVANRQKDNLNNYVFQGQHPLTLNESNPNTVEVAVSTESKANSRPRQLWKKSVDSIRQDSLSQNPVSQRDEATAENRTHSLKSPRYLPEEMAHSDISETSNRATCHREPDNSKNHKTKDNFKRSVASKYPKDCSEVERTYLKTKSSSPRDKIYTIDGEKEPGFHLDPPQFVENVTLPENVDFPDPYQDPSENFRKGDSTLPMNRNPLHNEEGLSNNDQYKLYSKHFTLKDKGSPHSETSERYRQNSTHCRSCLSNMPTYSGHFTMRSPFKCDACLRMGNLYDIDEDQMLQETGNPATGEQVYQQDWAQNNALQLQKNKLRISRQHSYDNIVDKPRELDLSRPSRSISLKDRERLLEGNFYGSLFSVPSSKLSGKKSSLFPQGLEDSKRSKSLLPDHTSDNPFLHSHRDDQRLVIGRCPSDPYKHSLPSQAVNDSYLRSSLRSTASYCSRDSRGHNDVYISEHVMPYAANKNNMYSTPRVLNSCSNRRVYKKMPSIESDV
T2 sequence (Q13224 27-1484, other chains not shown): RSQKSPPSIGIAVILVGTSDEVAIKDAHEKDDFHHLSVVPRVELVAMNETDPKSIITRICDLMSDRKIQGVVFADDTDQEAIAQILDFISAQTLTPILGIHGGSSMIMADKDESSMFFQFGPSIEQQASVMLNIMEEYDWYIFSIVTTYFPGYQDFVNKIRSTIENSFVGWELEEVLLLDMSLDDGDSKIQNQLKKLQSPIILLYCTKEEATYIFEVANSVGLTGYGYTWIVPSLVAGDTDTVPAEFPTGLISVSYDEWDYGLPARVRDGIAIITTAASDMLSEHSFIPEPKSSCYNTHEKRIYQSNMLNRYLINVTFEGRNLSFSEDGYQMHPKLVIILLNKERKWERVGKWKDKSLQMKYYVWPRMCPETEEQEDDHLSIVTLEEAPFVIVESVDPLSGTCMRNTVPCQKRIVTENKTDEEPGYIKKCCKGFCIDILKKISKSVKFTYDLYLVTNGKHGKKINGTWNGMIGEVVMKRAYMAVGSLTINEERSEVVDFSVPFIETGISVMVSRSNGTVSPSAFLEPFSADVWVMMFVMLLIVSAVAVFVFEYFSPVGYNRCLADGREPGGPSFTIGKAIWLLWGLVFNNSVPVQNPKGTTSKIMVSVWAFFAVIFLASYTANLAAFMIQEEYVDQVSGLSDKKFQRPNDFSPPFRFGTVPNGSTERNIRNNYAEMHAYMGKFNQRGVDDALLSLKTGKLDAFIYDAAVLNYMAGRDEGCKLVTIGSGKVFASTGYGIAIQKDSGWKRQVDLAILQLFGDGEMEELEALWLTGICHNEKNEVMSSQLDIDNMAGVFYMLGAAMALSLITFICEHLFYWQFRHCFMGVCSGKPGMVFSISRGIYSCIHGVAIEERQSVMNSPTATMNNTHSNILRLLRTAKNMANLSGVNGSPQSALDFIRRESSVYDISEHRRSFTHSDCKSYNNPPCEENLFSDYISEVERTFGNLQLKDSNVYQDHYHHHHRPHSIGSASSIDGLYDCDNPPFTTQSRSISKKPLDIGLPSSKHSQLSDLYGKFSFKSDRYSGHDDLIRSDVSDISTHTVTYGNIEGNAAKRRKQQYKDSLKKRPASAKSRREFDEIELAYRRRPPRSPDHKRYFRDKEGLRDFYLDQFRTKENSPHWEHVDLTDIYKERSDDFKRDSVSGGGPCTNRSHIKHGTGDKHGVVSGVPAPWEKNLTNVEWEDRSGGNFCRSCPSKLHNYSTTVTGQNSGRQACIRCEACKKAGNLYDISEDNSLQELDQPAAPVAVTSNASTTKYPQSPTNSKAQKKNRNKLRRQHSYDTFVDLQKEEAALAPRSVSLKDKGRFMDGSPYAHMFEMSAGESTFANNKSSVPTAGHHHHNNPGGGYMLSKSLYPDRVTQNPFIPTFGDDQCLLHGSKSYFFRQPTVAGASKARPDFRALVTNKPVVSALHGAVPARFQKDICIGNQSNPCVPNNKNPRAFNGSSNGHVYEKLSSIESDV

CCN(CCN)Cc1cccc(Br)c1 [Compound 8]
neuroprotection in neuronal cell culture (neuronal cell culture): potent neuroprotectant | block of NMDARs expressed heterologously in HEK293 cells (NMDARs): did not block | neuroprotection in vivo in mouse models of stroke and retinal degeneration [1]: potent neuroprotectant

N[C@H](CCCP(=O)(O)O)C(=O)O [D-APV, reference compound]
IC50 [2]: 4.5 µM | IC50 [3]: 4.3 µM

CN[C@H](CC(=O)O)C(=O)O [NMDA]
EC80 NMDA concentration for receptor activation [4]: 90 µM | EC80 NMDA concentration for receptor activation [5]: 40 µM

N[C@@H](CCC(=O)O)C(=O)O [glutamate, Glutamate, reference compound]
EC80 of glutamate for death of cortical neurons [6]: 20 µM

— PMC10897598, “TwinF interface inhibitor FP802 stops loss of motor neurons and mitigates disease progression in a mouse model of ALS” (Cell Reports Medicine, 2024)
